The whole screen tested about 420,000 compounds, of which about 50,000 (12%) were called active. Inconclusive results, whose numbers are uncertain, are shown with a selection of clear calls. The call rests on the fitted dose curve; in most records, active means well fitted inhibition curve with a large enough effect; inconclusive means small, poorly fitted or top-dose-only effect; inactive means flat fitted curve, though single readings scatter. No potency is given beside an inconclusive call; the fits are too rough.
assay: qHTS for Inhibitors of human tyrosyl-DNA phosphodiesterase 1 (TDP1): qHTS in cells in presence of CPT; details: chicken DT40 Tdp1-/-;hTDP1 cells + 20 nM CPT, ATP luminescence, 48 h; activity change, negative = growth inhibition: at 46.2 µM (top of the series); further: nearly all actives have a fitted effect of over 55% in size
Procedure, shortened: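 Chicken DT40 Tdp1-/- cells complemented with human TDP1, 400 cells/well, exposed to compounds plus 20 nM camptothecin for at least 48 h at 37 C; viability read as ATP content by CellTiter-Glo luminescence.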
On the % scale 0 is the no-effect control and ±100 the full control effect; potency means the concentration at half of the fitted maximal effect; tags describe the fitted curve by direction and shape.

| SMILES | Potency | activity change, negative = growth inhibition |
| --- | --- | --- |
| O=C(CC1C(=O)OCCN1Cc1ccccc1)Nc1cccc(Cl)c1 (centres undefined) | inconclusive [inhibitor, single point] |  |
| CN(C[C@H](Cc1ccccc1)N(C[C@@H](Cc1cccc2ccccc12)N(CCc1ccccc1)N=O)N=O)N=O | inconclusive [inhibitor, single point] |  |
| C=CS(=O)c1sc(Cl)c(N2CCOCC2)c1[N+](=O)[O-] (centres undefined) | active: 0.731 µM |  |
| CCOc1cc(Cn2c(-c3ccc(O)c(OCC)c3)nc3ccccc32)ccc1O | inconclusive [inhibitor, single point] |  |
| COc1ccc(-n2c(-c3ccccc3F)nc3c(cnn3-c3ccc(C)cc3)c2=O)cc1 | active: 20.6 µM |  |
| CCOC(=O)[C@H](CCc1ccccc1)N[C@H]1CCc2ccccc2N(CC(=O)O)C1=O | inconclusive [inhibitor, single point] |  |
| O=C(Nc1ccccc1C(=O)N1CCCCC1)NC1CCCCC1 | inactive |  |
| C=CC[C@@H](CC(=O)N(CCO)Cc1ccccc1)C(=O)N[C@@H](COC(=O)[C@@H](CC=C)Cc1ccc(F)cc1)Cc1ccccc1 | active: 20.6 µM |  |
| COc1cc(=O)[nH]c(SC(C)C(=O)Nc2cccc3ccccc23)n1 (centres undefined) | inactive |  |
| COc1ccc2nc(NC(=O)CSc3nc(C)cc(C)n3)sc2c1 |  | inconclusive: -35.6% [inhibitor] |
| COc1ccc(N2CCN(C(CNC(=O)c3cccs3)c3ccco3)CC2)cc1 (centres undefined) | inactive |  |
| O=C1CC(SCc2nc3ccccc3[nH]2)C(=O)N1c1ccc(F)cc1 (centres undefined) | inconclusive [inhibitor, single point] |  |
| Cc1ccc2c(Sc3ccccc3)c(C(=O)NCc3ccccc3F)[nH]c2c1 | active: 9.2 µM |  |
| O=C(c1ccc(Cn2cc(Cl)c([N+](=O)[O-])n2)cc1)N1CCN(Cc2ccccc2)CC1 | inconclusive [inhibitor, single point] |  |
| Cc1cc(C)cc(OCc2nnc(SCC(=O)Nc3ccccc3)o2)c1 |  | inconclusive: -5.37% [inhibitor] |
| CCOc1ccccc1NC(=O)CSc1nc2ccccc2nc1Cc1ccc(C)cc1 | inconclusive [inhibitor, single point] |  |
| CCn1nc(C)c(NC(=O)CCCSc2nc(-c3ccco3)cc(C(F)(F)F)n2)c1C | active: 18.4 µM |  |
| Cc1ccc(S(=O)Cc2ccc(C(=O)NCc3ccc(OC(C)C)cc3)o2)cc1 (centres undefined) | inconclusive [inhibitor, single point] |  |
| Cc1nc2c3cccnc3nn2c(C)c1CCC(=O)NCc1ccccc1Cl | inconclusive [inhibitor, single point] |  |
